Results taken from PubChem BioAssay AID602293 (National Center for Advancing Translational Sciences (NCATS), 2012).
About 30 (2%) of roughly 1,300 compounds were called active. Not shown: some 10% with an inconclusive outcome. Calls come from the whole dose curve; as a rule, active = well fitted inhibition curve with a large enough effect; inconclusive = small, poorly fitted or top-dose-only effect; inactive = flat fitted curve, though single readings scatter. The list shows a part of the results.

Test: qHTS for antagonists of the Thyroid Stimulation Hormone Receptor: Hit Validation in HTRF Activity in a Luteinizing Hormone Receptor Cell Line
Details: LHR-expressing cell line, cAMP HTRF, antagonist mode; series mostly up to 58 µM; activity change, negative = inhibition: at the top concentration
Method in brief: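 Counter-screen on LH receptor–transfected HEK 293 cells: 30 min compound exposure at room temperature in medium containing 100 uM RO 20-1724 phosphodiesterase inhibitor. Cellular cAMP read by competitive HTRF after lysis with d2-cAMP and anti-cAMP antibody (330 nm excitation; 615/660 nm emission).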
% is set by controls: 0 for no effect and ±100 for the full control effect.

Activity change, negative = inhibition, inactive:
COc1ccccc1CNS(=O)(=O)c1cc(-c2cc(C)no2)ccc1C(C)C 1.49%
O=C(Cn1nc(Cc2cccnc2)c2ccccc2c1=O)NCC1COc2ccccc2O1 (configuration not stated) 2.66%
CCOc1cc(NC(=O)C2CC2)c(OCC)cc1NC(=O)c1cccc(F)c1 0.0216%
O=C(Nc1cccc(F)c1)c1ccc(CSc2ccccc2)o1 -0.61%
O=C1c2ccccc2C(=O)N1CCCCSc1nnnn1-c1ccccc1 -1.21%
COCCCn1c(=O)c2sccc2n(Cc2cccc(C)c2)c1=O 1.77%
O=C(Nc1nc(-c2ccc(S(=O)(=O)N3CCCCCC3)cc2)cs1)c1ccccc1 -6.65%
COCC(C)NC(=O)C1c2ccccc2Oc2ccccc21 (configuration not stated) -1%
Cc1ccc(S(=O)(=O)N2CCOCC2)cc1N/N=C(\C#N)c1nc2ccccc2[nH]1 -0.0733%
O=C(Nc1cccc(Cl)c1)Nc1nnc(-c2ccncc2)s1 1.03%
O=S(=O)(c1cc(C(F)(F)F)ccc1Cl)N1CCN(c2ncnc3ccccc23)CC1 -3.64%
O=C(O)c1ccccc1NS(=O)(=O)c1cccc(-n2sc3ccccc3c2=O)c1 -2.87%
O=c1c(Sc2ccccc2)c(C(F)(F)F)[nH]n1-c1ccccc1 2.36%
O=c1cc(C(F)(F)F)[nH]c2ccc(OC(F)(F)F)cc12 0.68%
CCOc1cc(N2CCOCC2)c(OCC)cc1NC(=O)c1cccc(S(=O)(=O)N2CCOCC2)c1 -2.11%
O=C(NCCc1ccccc1)c1cc2ccccc2oc1=O -0.429%
CCCCCC/C(C)=C1/SC(=S)NC1=O 1.84%
N#CC1=C(C2CC2)CC(c2ccccc2)C(C#N)=C1N (configuration not stated) 1.75%
Nc1ccc(C(=O)NC2CCSc3ccccc32)cc1[N+](=O)[O-] (configuration not stated) -1.23%
NC(=O)c1ccc(CN2CCc3ccccc3C2)cc1 0.856%
Cc1ccc(C(=O)c2c(NC(=O)c3ccccc3)sc(C)c2C)cc1 -1.36%
Cn1nnnc1SCC1=C(C(=O)O)N2C(=O)C(NC(=O)C3CC3c3ccccc3)C2SC1 (configuration not stated) 0.0352%
Cc1cc(OCc2cc(C(=O)N(C)C(C)c3ccccn3)no2)cc(C)c1Cl (configuration not stated) 0.705%
COc1ccccc1C(=O)Nc1nnc(SCC(=O)NC2CCCC2)s1 2.01%
Clc1ccc(CSc2nnc(CNc3cccc(Cl)c3)o2)cc1 0.688%
O=C(Nc1ccccc1)c1ccc(Br)c(S(=O)(=O)Nc2cccnc2)c1 0.736%
CCOc1ccc(NS(=O)(=O)c2cc(NC(=O)c3cccc(C)c3)ccc2Cl)cc1 -7.18%
O=C(Nc1nc(-c2ccc(Cl)cc2Cl)cs1)c1ccc(OCC2CCCO2)cc1 (configuration not stated) -6.16%
COc1ccc2nc(NC(=O)c3ccccc3[N+](=O)[O-])sc2c1 -1.2%
Cc1nn(Cc2ccccc2)c(C)c1NC(=O)c1noc2c1CCc1ccccc1-2 -2.93%
Cc1ccccc1-n1nnnc1SC1CCOC1=O (configuration not stated) 0.689%
O=C(O)c1ccc(CNC(=O)c2ccc3c(c2)C(=O)N(Cc2cccnc2)C3=O)cc1 1.33%
O=C(c1ccco1)N1N=C(C2CCCCC2)CC1(O)C(F)(F)F (configuration not stated) 0.572%
O=C(Nc1cc(Sc2nc3ccccc3s2)cc([N+](=O)[O-])c1)c1ccccc1F 0.335%
C#C[C@]1(OC(C)=O)CCC2C3CCC4=CC(=O)CC[C@@H]4C3CC[C@@]21C (some centres not stated) -2.02%
Cc1ccc(-n2[nH]c(C)c(/C=N/Nc3ccc([N+](=O)[O-])cc3[N+](=O)[O-])c2=O)cc1 -2.45%
CSc1nc(N)nc(SCC(=O)Nc2ccc(Cl)cc2)c1C#N 0.0426%
CC(C)OCCCn1c(=O)c2ccccc2n2c(CCC(=O)NC3CCN(Cc4ccccc4)CC3)nnc12 -0.254%
O=C(NC1CCCCC1)c1cc(-c2ccccc2O)on1 -0.0782%
CC1CCN(S(=O)(=O)c2cccc(C(=O)N3CCN(c4ccc(F)cc4)CC3)c2)CC1 -1.37%
CS(=O)(=O)c1ccc(N2CCN(c3ccccn3)CC2)c([N+](=O)[O-])c1 1.26%
CCc1ccccc1NC(=O)C1CCCN(S(=O)(=O)c2ccc3c(c2)CC(C)N3C(C)=O)C1 (configuration not stated) 2.07%
CCCC(=O)Nc1nnc(CCc2ccccc2)s1 2.59%
CCOC(=O)c1c(S(=O)(=O)NCC(=O)Nc2cccc(C)c2C)c(C)n(C)c1C 3.52%
O=c1/c(=C/c2ccc(O)c([N+](=O)[O-])c2)sc2nc3ccccc3n12 -0.441%
CS(=O)(=O)c1nc(-c2ccc(Br)cc2)cc(-c2ccccc2)c1C#N -2.1%
N#Cc1ccc(Nc2nc(-c3ccc(O)cc3O)cs2)cc1C(F)(F)F -3.26%
CCOC(=O)c1c(NC(=O)/C=C/C(=O)O)sc(C)c1-c1ccc(Cl)cc1 -0.895%
CS(=O)(=O)Cc1ccc(C(=O)Nc2cccc(-c3nc4ccccc4[nH]3)c2)cc1 0.454%
O=C(NCc1ccccc1)c1c(Cl)nc(Cl)c(Cl)c1Cl -4.21%
O=C1CSc2nc3ccccc3n21 1.12%
COc1ccc(-n2c(SCC(=O)Nc3cc(C)on3)nc3c(c2=O)SCC3)cc1OC 1.39%
CC1=NN(C(N)=S)C(=O)C1N=Nc1ccc(Cl)cc1Cl (configuration not stated) -0.667%
Cc1ccc(S(=O)(=O)Nc2ccc(N=Nc3ccc(O)cc3)cc2)cc1 -1.68%
Cc1ccc(CCC(=O)NCc2ccccc2)o1 2.28%
CC1=C(C(=O)N2CCCC(N3CCN(c4ccccc4C)CC3)C2)OCCO1 (configuration not stated) 0.43%
COc1ccccc1C(=O)NCCC(=O)Nc1ccc(OC(F)(F)F)cc1 0.988%
O=S(=O)(Cc1cc(Cl)nc(-c2cccnc2)n1)c1ccccc1 -1.72%
Cc1ccccc1NC1c2ccccc2C(=O)N1Cc1ccco1 (configuration not stated) 0.697%
Cc1ccc(NC(=O)COc2cccc3c2OC(C)(C)C3)c(O)c1 0.305%
CN(CC(=O)Nc1ccccc1Cl)C(=O)COC(=O)c1nc(Cl)c(Cl)c(Cl)c1Cl -1.19%
O=C(CCc1nnc2n(Cc3ccc(Cl)cc3)c(=O)c3ccccc3n12)N1CCN(c2ccccn2)CC1 -0.965%
CCCOc1ccc(CSc2nc3ccccc3[nH]2)cc1 -3.51%
O=C(Oc1c(Br)cc([N+](=O)[O-])cc1Br)c1cccnc1 1.3%
O=[N+]([O-])c1ccc(O)c(/C=N/NC(=S)Nc2ccc(Cl)cc2Cl)c1 0.938%
CCCCC(=O)N1CCN(c2nc3ccc(Br)cc3s2)CC1 -0.833%
CC1(C)CC(O)CC(C)(C)N1CC(O)COCc1ccccc1 (configuration not stated) -0.154%
